Assay results: patent US20230122079A1 (Zymeworks, published 2023)

B1: 33507 (Briakinumab scFv-masked reduced-potency IL12 HetFc fusion, p35 F39S_Y40S_Y167S) (Fc fusion)
chain 1: [gap - human IgG1 Fc with changes]SADGGIWELKKDVYVVELDWYPDAPGEMVVLTCDTPEEDGITWTLDQSSEVLGSGKTLTIQVKEFGDAGQYTCHKGGEVLSHSLLLLHKKEDGIWSTDILKDQKEPKNKTFLRCEAKNYSGRFTCWWLTTISTDLTFSVKSSRGSSDPQGVTCGAATLSAERVRGDNKEYEYSVECQEDSACPAAEESLPIEVMVDAVHKLKYENYTSSFFIRDIIKPDPPKNLQLKPLKNSRQVEVSWEYPDTWSTPHSYFSLTFCVQVQGKSKREKKDRVFTDKTSATVICRKNASISVRAQDRYYSSSWSEWASVPCSGGGGSGGGGSGGGGSNLPVATPDPGMFPCLHHSQNLLRAVSNMLQKARQTLESSPCTSEEIDHEDITKDKTSTVEACLPLELTKNESCLNSRETSFITNGSCLASRKTSFMMALCLSSIYEDLKMYQVEFKTMNAKLLMDPKRQIFLDQNMLAVIDELMQALNFNSETVPQKSSLEEPDFSKTKIKLCILLHAFRIRAVTIDRVMSYLNAS
chain 2: EPKSSDKTHTCPPCPAPEAAGGPSVFLFPPKPKDTLMISRTPEVTCVVVSVSHEDPEVKFNWYVDGVEVHNAKTKPREEQYNSTYRVVSVLTVLHQDWLNGKEYKCKVSNKALPAPIEKTISKAKGQPREPQVYVLPPSRDELTKNQVSLLCLVKGFYPSDIAVEWESNGQPENNYLTWPPVLDSDGSFFLYSKLTVDKSRWQQGNVFSCSVMHEALHNHYTQKSLSLSPGGGGGSGGGGSMSGRSANAGGGGSGGGGSQVQLVESGGGVVQPGRSLRLSCAASGFTFSSYGMHWVRQAPGKGLEWVAFIRYDGSNKYYADSVKGRFTISRDNSKNTLYLQMNSLRAEDTAVYYCKTHGSHDNWGQGTMVTVSSGGGGSMSGRSANAGGGGSGGGGSQSVLTQPPSVSGAPGQRVTISCSGSRSNIGSNTVKWYQQLPGTAPKLLIYYNDQRPSGVPDRFSGSKSGTSASLAITGLQAEDEADYYCQSYDRYTHPALLFGTGTKVTVL
B2: 33510 (Briakinumab scFv-masked reduced-potency IL12 HetFc fusion, p40 D41S_E45R_K58S_E59S_K195D) (Fc fusion)
chain 1: [gap - human IgG1 Fc with changes]SADGGIWELKKDVYVVELDWYPDAPGEMVVLTCDTPEEDGITWTLSQSSRVLGSGKTLTIQVSSFGDAGQYTCHKGGEVLSHSLLLLHKKEDGIWSTDILKDQKEPKNKTFLRCEAKNYSGRFTCWWLTTISTDLTFSVKSSRGSSDPQGVTCGAATLSAERVRGDNKEYEYSVECQEDSACPAAEESLPIEVMVDAVHDLKYENYTSSFFIRDIIKPDPPKNLQLKPLKNSRQVEVSWEYPDTWSTPHSYFSLTFCVQVQGKSKREKKDRVFTDKTSATVICRKNASISVRAQDRYYSSSWSEWASVPCSGGGGSGGGGSGGGGSNLPVATPDPGMFPCLHHSQNLLRAVSNMLQKARQTLEFYPCTSEEIDHEDITKDKTSTVEACLPLELTKNESCLNSRETSFITNGSCLASRKTSFMMALCLSSIYEDLKMYQVEFKTMNAKLLMDPKRQIFLDQNMLAVIDELMQALNFNSETVPQKSSLEEPDFYKTKIKLCILLHAFRIRAVTIDRVMSYLNAS
chain 2: B1 chain 2
B3: 33511 (Briakinumab scFv-masked reduced-potency IL12 HetFc fusion, p40 K99S_E100S_R159S) (Fc fusion)
chain 1: [gap - human IgG1 Fc with changes]SADGGIWELKKDVYVVELDWYPDAPGEMVVLTCDTPEEDGITWTLDQSSEVLGSGKTLTIQVKEFGDAGQYTCHKGGEVLSHSLLLLHKKEDGIWSTDILKDQSSPKNKTFLRCEAKNYSGRFTCWWLTTISTDLTFSVKSSRGSSDPQGVTCGAATLSAERVSGDNKEYEYSVECQEDSACPAAEESLPIEVMVDAVHKLKYENYTSSFFIRDIIKPDPPKNLQLKPLKNSRQVEVSWEYPDTWSTPHSYFSLTFCVQVQGKSKREKKDRVFTDKTSATVICRKNASISVRAQDRYYSSSWSEWASVPCSGGGGSGGGGSGGGGSNLPVATPDPGMFPCLHHSQNLLRAVSNMLQKARQTLEFYPCTSEEIDHEDITKDKTSTVEACLPLELTKNESCLNSRETSFITNGSCLASRKTSFMMALCLSSIYEDLKMYQVEFKTMNAKLLMDPKRQIFLDQNMLAVIDELMQALNFNSETVPQKSSLEEPDFYKTKIKLCILLHAFRIRAVTIDRVMSYLNAS
chain 2: B1 chain 2

Target: IL12 receptors IL12Rβ1 and IL12Rβ2 (on CD8+ T cells) (human, UniProt P42701 24-662; Q99665 24-862)
Assay: cell-based or functional assay

Binder	Fold Change in Potency compared to corresponding non-masked reduced-potency IL12 variant v33495 (Masked Variant EC50/Non-masked Variant EC50); IFNγ production by CD8T cells [fold]	Fold Change in Potency compared to parental non-masked WT IL12 variant v30806 (Variant EC50/Parental Variant EC50); IFNγ production by CD8T cells [fold]	Fold Change in Potency compared to corresponding non-masked reduced-potency IL12 variant v33498 (Masked Variant EC50/Non-masked Variant EC50); IFNγ production by CD8T cells [fold]	Fold Change in Potency compared to corresponding non-masked reduced-potency IL12 variant v33499 (Masked Variant EC50/Non-masked Variant EC50); IFNγ production by CD8T cells [fold]
B1	132	52000		
B2		5560	329	
B3		195		67
